The other results are listed elsewhere or left out. These are noisy estimates, calculated here from bound and input reads.
molecular target: T1, Pho4 (S. cerevisiae) (UniProt P07270); assay: relative binding free energy (BET-seq); higher = weaker binding; conditions: reference: library average
T1 sequence: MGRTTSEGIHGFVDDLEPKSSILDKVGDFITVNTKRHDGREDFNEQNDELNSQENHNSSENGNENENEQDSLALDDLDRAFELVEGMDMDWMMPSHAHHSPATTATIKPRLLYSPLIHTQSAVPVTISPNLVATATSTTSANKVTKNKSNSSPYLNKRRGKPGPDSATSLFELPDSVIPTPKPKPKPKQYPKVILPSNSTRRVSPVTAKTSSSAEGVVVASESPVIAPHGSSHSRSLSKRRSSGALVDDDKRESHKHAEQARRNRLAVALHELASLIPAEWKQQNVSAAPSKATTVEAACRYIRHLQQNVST

Row | Sequence | relative binding free energy [kcal/mol]
1 | TTGGGCACGTGAGAGG | 0.11
2 | CGGATCACGTGATGGT | 0.16
3 | TAGAGCACGTGAGTGG | 0.28
4 | CGATACACGTGTAGGG | 0.11
5 | TTGGGCACGTGTCTTC | -0.04
6 | AATATCACGTGTGGAG | 0.24
7 | GGCGTCACGTGTTTTG | 0.11
8 | AATGGCACGTGGATCT | -0.03
9 | TAATACACGTGCGGTT | 0
10 | ATATGCACGTGGACGT | -0.08
11 | TGGCACACGTGTGCGT | -0.07
12 | TCGATCACGTGCGGGT | 0.14
13 | GTTACCACGTGGCGGT | -0.08
14 | TGTATCACGTGAGAAG | 0.31
15 | GTGTACACGTGGGTCA | -0.02
16 | GGGGGCACGTGGTGGA | -0.07
17 | AGGCGCACGTGGGGAG | -0.25
18 | GGGTACACGTGTTATA | 0
19 | GATCGCACGTGAGTGG | 0.24
20 | TTGTACACGTGGAGAT | 0.05
21 | GGATTCACGTGTGTTA | 0.41

Row | Sequence | relative binding free energy [kcal/mol]
22 | TACGTCACGTGTTGGT | 0.15
23 | AAATTCACGTGATAGG | 0.17
24 | CTGTGCACGTGACGGG | 0.14
25 | AGACTCACGTGGGTTG | 0.02
26 | TGGGGCACGTGCGCGC | -0.32
27 | ACTTTCACGTGATTGG | 0.21
28 | ATTCGCACGTGTCTGT | -0.07
29 | GTGTACACGTGGCGAG | -0.11
30 | GGCGTCACGTGTAATA | 0.34
31 | TCAGACACGTGATTGG | 0.15
32 | GTGTGCACGTGGGTTA | -0.11
33 | ATACACACGTGGATGT | 0.15
34 | TTCAACACGTGTATTT | 0.03
35 | GTTATCACGTGATCGG | 0.34
36 | TTTATCACGTGTGCGC | 0.28
37 | AAAGGCACGTGTATTT | -0.02
38 | TTTAGCACGTGAATTA | 0.3
39 | GTGGGCACGTGTGCGC | -0.03
40 | TGGGTCACGTGACGGG | 0.15
41 | GATTGCACGTGAATAG | 0.34
42 | AGTGCCACGTGCTGGA | -0.12

Row | Sequence | relative binding free energy [kcal/mol]
43 | GTTGGCACGTGGAAAG | 0.02
44 | ATGTGCACGTGAATGA | 0.14
45 | CGGGTCACGTGCTAGT | 0.08
46 | GTGTACACGTGAAATG | 0.31
47 | TTCTGCACGTGGTGGA | -0.08
48 | GTGATCACGTGGTCGG | 0.11
49 | TGTTCCACGTGGTGCG | -0.15
50 | CGTCACACGTGGTGTT | -0.02
51 | GGTGACACGTGTAGAG | -0.01
52 | TTGGACACGTGCGTTG | -0.09
53 | AGGTCCACGTGGGTGT | -0.12
54 | GTTTCCACGTGTTTTT | 0.22
55 | GGGCGCACGTGTGGCT | 0.02
56 | TGTTGCACGTGGCGTG | -0.02
57 | TGTGACACGTGGAAAT | 0.1
58 | TGTCACACGTGGTGAT | -0.01
59 | TTGTACACGTGGGAAA | 0.01
60 | AGCTTCACGTGAGAGG | 0.4
61 | GTACGCACGTGGTGGT | -0.1
62 | CGCGGCACGTGATATG | 0.13
63 | TGGCTCACGTGTGAGG | 0.41

From the BET-seq Pho4 binding data (Le et al. 2018)
